From publication PMC4336329 (PLoS ONE, 2015)
Hit rate of the full screen: of about 310,000 compounds, about 2,200 (0.71%) showed an effect of 50% or more. Effects have a minus sign here. This is one part of the list.

Each compound was assayed against human ether-à-go-go-related gene (hERG) potassium channel (human, UniProt Q12809) (assay: primary screen, population patch clamp on CHO cells stably expressing hERG).
Sequence of human ether-à-go-go-related gene (hERG) potassium channel (Q12809 whole entry, looked up): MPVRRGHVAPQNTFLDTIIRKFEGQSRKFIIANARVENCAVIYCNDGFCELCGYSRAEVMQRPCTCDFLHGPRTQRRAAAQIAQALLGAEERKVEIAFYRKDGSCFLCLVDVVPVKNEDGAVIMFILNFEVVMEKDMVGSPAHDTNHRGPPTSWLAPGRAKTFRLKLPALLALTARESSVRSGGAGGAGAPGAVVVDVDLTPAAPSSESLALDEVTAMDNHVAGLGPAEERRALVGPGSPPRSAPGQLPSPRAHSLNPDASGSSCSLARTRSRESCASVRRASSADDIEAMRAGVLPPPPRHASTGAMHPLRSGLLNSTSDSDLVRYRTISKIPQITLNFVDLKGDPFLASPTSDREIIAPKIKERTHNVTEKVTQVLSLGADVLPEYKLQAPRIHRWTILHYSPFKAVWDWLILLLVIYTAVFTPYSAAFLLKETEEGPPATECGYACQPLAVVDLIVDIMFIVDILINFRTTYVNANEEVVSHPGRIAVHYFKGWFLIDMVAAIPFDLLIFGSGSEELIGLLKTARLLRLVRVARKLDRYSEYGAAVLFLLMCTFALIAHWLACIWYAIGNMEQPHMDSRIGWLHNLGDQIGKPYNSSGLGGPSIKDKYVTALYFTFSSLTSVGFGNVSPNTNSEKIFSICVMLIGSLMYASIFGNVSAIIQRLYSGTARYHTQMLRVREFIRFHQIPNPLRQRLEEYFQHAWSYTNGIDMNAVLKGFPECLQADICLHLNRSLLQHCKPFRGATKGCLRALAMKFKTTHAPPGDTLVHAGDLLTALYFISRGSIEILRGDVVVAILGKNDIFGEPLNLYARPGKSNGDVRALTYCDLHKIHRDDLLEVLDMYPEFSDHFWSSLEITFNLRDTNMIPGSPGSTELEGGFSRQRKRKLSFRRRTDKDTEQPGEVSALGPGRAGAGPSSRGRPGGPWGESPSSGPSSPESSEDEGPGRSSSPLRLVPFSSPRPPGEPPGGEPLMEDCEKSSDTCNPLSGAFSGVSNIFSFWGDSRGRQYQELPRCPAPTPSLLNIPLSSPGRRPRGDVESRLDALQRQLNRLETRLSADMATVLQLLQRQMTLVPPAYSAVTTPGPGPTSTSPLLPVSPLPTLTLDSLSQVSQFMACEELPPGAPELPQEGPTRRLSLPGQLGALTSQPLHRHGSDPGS

| SMILES | hERG current change (%, negative = inhibition) at 1uM [%] |
| --- | --- |
| O=C(Nc1ccc(S(=O)(=O)N2CCOCC2)cc1)c1ccc(CN2CCc3ccccc3C2)cc1 | 7.63 |
| COc1cccc(-c2nn(-c3ccccc3)cc2/C=C(/NC(=O)c2ccccc2)C(=O)O)c1 | 6.01 |
| Cc1cccc2nc(COc3ccc(Cl)c4cccnc34)cn12 | 8.23 |
| CCCCNC(=O)Oc1ccc(C(=O)N2c3ccccc3NC(=O)C2C)cc1 (centres unmarked) | 11.4 |
| c1ccc(CN2CCC(Nc3nc(-c4cccnc4)nc4ccccc34)CC2)cc1 | -74.6 |
| Cc1cccn2c(=O)c3cc(C(N)=S)c(=N)n(CCCN4CCOCC4)c3nc12 | -90.5 |
| COc1cc(C2C(S(=O)(=O)c3ccccc3)CON2C)ccc1OCc1ccc(F)cc1 (centres unmarked) | 1.02 |
| C/C(=N\NC(=O)c1c(C)nc2ccccn12)c1ccc(O)cc1O | 16.3 |
| NC1=C([N+](=O)[O-])C(c2ccc(F)cc2)C2=C(CCCC2=O)O1 (centres unmarked) | 10.2 |
| CC(=O)Nc1cccc2c1Cc1ccccc1-2 | 14.4 |
| Cc1ccccc1NC(=O)c1c([N+](=O)[O-])c(C(C)(C)C)nn1C | 7.26 |
| CC1=C(C(=O)OCC2CCCCC2)C(c2cccc(O)c2)NC(=O)N1 (centres unmarked) | 5.44 |
| Oc1ccccc1-n1c(-c2ccccc2)ccc1-c1ccccc1 | 13 |
| O=C(Nc1cccc2c1C(=O)NC2=O)c1ccc(N2C(=O)CCC2=O)cc1 | 10.6 |
| Cc1cc(C)cc(NC(=O)CN2CCN(c3ccccn3)CC2)c1 | 1.92 |
| CN(C)S(=O)(=O)c1cccc(C(=O)OCC(=O)N2CCCC2=O)c1 | 12.1 |
| CC1CCCN(Cc2nc3c(c(=O)n(C)c(=O)n3C)n2CC(N)=O)C1 (centres unmarked) | 8.42 |
| CS(=O)(=O)N1CCN(C(=O)CSc2ccccc2)CC1 | 17.3 |
| Cc1ccc(N2C(=O)N(CC(=O)NCc3ccc(Cl)cc3)C(=O)C2C)cc1 (centres unmarked) | 4.65 |
| O=C(Nc1cccc2ncccc12)c1ccccc1Cl | 17.1 |
| COCCn1c(N)c(N(Cc2ccccc2)C(=O)COc2ccc(F)cc2Cl)c(=O)[nH]c1=O | 14.5 |
| O=C(CCCc1ccccc1)Nc1cccnc1Cl | 8.5 |
| CCOC(=O)N1CCC(NC(=O)c2cn(-c3ccc(OC)cc3)c(=O)c3ccccc23)CC1 | 9.14 |
| CC(=O)NS(=O)(=O)c1ccc(NC(=O)c2cccc(S(=O)(=O)N3CCc4ccccc43)c2)cc1 | 11.2 |
| Cc1ccccc1NS(=O)(=O)c1ccc(C(=O)NCC(c2ccccc2)N(C)C)cc1 (centres unmarked) | 13.3 |
| COc1ccc2nc(CNC(=O)C3CCC(=O)N(CCc4ccccc4)C3)[nH]c2c1 (centres unmarked) | 12.7 |
| O=c1c2ccccc2[nH]c(=S)n1CCCN1CCC(Cc2ccccc2)CC1 | -52 |

| SMILES | hERG current change (%, negative = inhibition) at 1uM [%] |
| --- | --- |
| CC/C(=N\NC(=O)CCC(=O)NCc1ccccc1)c1ccc(O)cc1 | 16 |
| CC(C)CC1Nc2ccc(C(=O)NCCCN3CCOCC3)cc2NC1=O (centres unmarked) | 14.6 |
| O=C(CN1C(=O)C2C3CC(C(Br)C3Br)C2C1=O)Nc1ccc(C(=O)O)cc1 (centres unmarked) | 17.8 |
| COc1cccc(N(CC(=O)NCCSc2ccccn2)S(C)(=O)=O)c1 | 5.32 |
| CC1=C(C(=O)OCC2CCCO2)C(c2ccc(C)o2)C2=C(CC(c3ccc(F)cc3)CC2=O)N1 (centres unmarked) | 2.55 |
| CCC(=O)Nc1ccc(/C(C)=N\NS(=O)(=O)c2ccc(C)cc2)cc1 | 3.85 |
| COc1ccc(/C=C2\SC(=S)N(CCC(=O)NCCCN3CCOCC3)C2=O)cc1.Cl | 9.51 |
| O=C(c1cccc2ccccc12)C1CCCN(C(=O)CCc2cnccn2)C1 (centres unmarked) | 7.64 |
| CCOc1cc(/C=C2/NC(=O)N(CC(=O)Nc3cccc(C)c3)C2=O)ccc1OCC(N)=O | 11.1 |
| Cn1c(SCC(=O)c2ccc(F)cc2)nnc1-c1cnccn1 | 7.49 |
| O=C(c1ccc(Sc2ccccc2)c([N+](=O)[O-])c1)N1CCOCC1 | 13.7 |
| COc1ccc(S(=O)(=O)N2CCCCC2)cc1C(=O)Nc1cc(C)on1 | -2.46 |
| Cc1ccc(S(=O)(=O)N2CCOCC2)cc1NS(=O)(=O)c1ccc(F)c(F)c1 | -0.313 |
| O=C(O)CCC(=O)N1CCN(c2ccc(C(=O)c3ccc(F)cc3)cc2)CC1 | -1.21 |
| O=C(c1ccc(NS(=O)(=O)c2ccc(F)cc2)cc1)N1CCCCCC1 | 16.4 |
| COC(=O)CCCC[C@@H]1SC[C@@H](NC(=O)OC)[C@@H]1NC(=O)OC | 9.11 |
| Cc1cc(C)c(OCCCCCn2ccnc2)c(C)c1 | 9.7 |
| CCc1ccc(-n2c(=S)sc3c(=O)n(-c4ccccc4C)c(SCC(=O)O)nc32)cc1 | 12.2 |
| CN(C)/C=C/C(=O)c1ncc(C(F)(F)F)cc1Cl | 13.5 |
| CC(C)CNS(=O)(=O)c1ccc(OCC(=O)Nc2ccc3c(c2)OCCO3)cc1 | 14.4 |
| CC(O)C(NS(=O)(=O)c1ccc(Cl)cc1)C(=O)OCC(=O)N1CCN(c2ccccc2)CC1 (centres unmarked) | 6.01 |
| CC(CC(=O)O)CC(=O)Nc1nncs1 (centres unmarked) | 4.53 |
| COC(=O)c1ccc(C(C(=O)NC2CCCCC2)N(CCN2CCOCC2)C(=O)Cc2cccs2)cc1 (centres unmarked) | 0.602 |
| CCn1c2ccccc2c2cc(CN3CCN(S(=O)(=O)Cc4ccccc4)CC3)ccc21.O=C(O)C(=O)O | 21.5 |
| CCc1cccc(C)c1NC(=S)N(CCCN1CCOCC1)Cc1cccnc1 | 6.27 |
| Cc1ccc(OCC(=O)N2CCN(c3nnc(-c4ccccc4)c4ccccc34)CC2)cc1 | -2.45 |
